The values below come from the GPR68 mutational scans of Howard et al. (2025).

First the molecules themselves.
B1: GPR68, Q15743 (parent)
chain: MGNITADNSSMSCTIDHTIHQTLAPVVYVTVLVVGFPANCLSLYFGYLQIKARNELGVYLCNLTVADLFYICSLPFWLQYVLQHDNWSHGDLSCQVCGILLYENIYISVGFLCCISVDRYLAVAHPFRFHQFRTLKAAVGVSVVIWAKELLTSIYFLMHEEVIEDENQHRVCFEHYPIQAWQRAINYYRFLVGFLFPICLLLASYQGILRAVRRSHGTQKSRKDQIQRLVLSTVVIFLACFLPYHVLLLVRSVWEASCDFAKGVFNAYHFSLLLTSFNCVADPVLYCFVSETTHRDLARLRGACLAFLTCSRTGRAREAYPLGAPEASGKSGAQGEEPELLTKLHPAFQTPNSPGSGGFPTGRLA

In series [1] the parent is B1. Nature of the series: cAMP reporter score (Enrich2 score, wild type = 0); higher = more signal; HEK293T, FACS bins.
Variants of B1 are the subject of series [2]. The experiment in a line: surface expression score (Enrich2 score, wild type = 0); higher = more signal; HEK293T, FACS bins.

The least precise scores are not listed. The source holds two more conditions with little spread; they are left out. Read del as a deletion of the residues named and ins as an insertion between two positions. For some of these results: The concentration of ogerin is not given here.

Consider MGNITADNSSMSCTIDHTIHQTLAPVVYVTVLVVGFPANCLSLYFGYLQIKARNELGVYLCNLTVADLFYICSLPFWLQYVLQHDNWSHGDLSCQVCGILLYENIYISVGFLCCISVDRYLAVAHPFRFHQFRTLKAAVGVSVVIWAKELLTSIYFLMHEEVIEDENQHRVCFEHYPIQAWQRAINYYRFLVGFLFPICLLLASYQGILRAVRRSHGTQKSRKDQIQRLVLSTVVIFLACFLPYHVLLLVRSVWEASCEFAKGVFNAYHFSLLLTSFNCVADPVLYCFVSETTHRDLARLRGACLAFLTCSRTGRAREAYPLGAPEASGKSGAQGEEPELLTKLHPAFQTPNSPGSGGFPTGRLA [D259E], for which the cAMP reporter score in series [1] (pH 5.5) came out at 0.395; in series [1] (pH 6), 1.05; in series [1] (pH 6, modulator: ogerin) it was 1.05; in series [1] (pH 6.5, modulator: ogerin), 0.421. Also, the surface expression score in series [2] amounted to 0.287.
For the variant MGNITADNSSMSCTIDHTIHQTLAPVVYVTVLVVGFPANCLSLYFGYLQIKARNELGVYLCNLTVADLFYICSLPFWLQYVLQHDNWSHGDLSCQVCGILLYENIYISVGFLCCISVDRYLAVAHPFRFHQFRTLKAAVGVSVVIWAKELLTSIYFLMHEEVIEDENQHRVCFEHYPIQAWQRAINYYRFLVGFLFPICLLLASYQGILRAVRRSHGTQKSRKDQIQRLVLSTVVIFLACFLPYHVLLLVRSVWEASCIFAKGVFNAYHFSLLLTSFNCVADPVLYCFVSETTHRDLARLRGACLAFLTCSRTGRAREAYPLGAPEASGKSGAQGEEPELLTKLHPAFQTPNSPGSGGFPTGRLA [D259I], the cAMP reporter score is 0.335 in series [1] (pH 5.5); 0.105 in series [1] (pH 6, modulator: ogerin); -1.2 in series [1] (pH 6.5, modulator: ogerin). Besides, the surface expression score in series [2] is -0.082.
In the case of MGNITADNSSMSCTIDHTIHQTLAPVVYVTVLVVGFPANCLSLYFGYLQIKARNELGVYLCNLTVADLFYICSLPFWLQYVLQHDNWSHGDLSCQVCGILLYENIYISVGFLCCISVDRYLAVAHPFRFHQFRTLKAAVGVSVVIWAKELLTSIYFLMHEEVIEDENQHRVCFEHYPIQAWQRAINYYRFLVGFLFPICLLLASYQGILRAVRRSHGTQKSRKDQIQRLVLSTVVIFLACFLPYHVLLLVRSVWEASCHFAKGVFNAYHFSLLLTSFNCVADPVLYCFVSETTHRDLARLRGACLAFLTCSRTGRAREAYPLGAPEASGKSGAQGEEPELLTKLHPAFQTPNSPGSGGFPTGRLA [D259H], the cAMP reporter score in series [1] (pH 5.5) is 0.124; in series [1] (pH 6) it was 0.64; in series [1] (pH 6, modulator: ogerin) it was 0.654; in series [1] (pH 6.5, modulator: ogerin), -1.55. In addition, the surface expression score in series [2] is -0.274.
The matching figures for MGNITADNSSMSCTIDHTIHQTLAPVVYVTVLVVGFPANCLSLYFGYLQIKARNELGVYLCNLTVADLFYICSLPFWLQYVLQHDNWSHGDLSCQVCGILLYENIYISVGFLCCISVDRYLAVAHPFRFHQFRTLKAAVGVSVVIWAKELLTSIYFLMHEEVIEDENQHRVCFEHYPIQAWQRAINYYRFLVGFLFPICLLLASYQGILRAVRRSHGTQKSRKDQIQRLVLSTVVIFLACFLPYHVLLLVRSVWEASCGFAKGVFNAYHFSLLLTSFNCVADPVLYCFVSETTHRDLARLRGACLAFLTCSRTGRAREAYPLGAPEASGKSGAQGEEPELLTKLHPAFQTPNSPGSGGFPTGRLA [D259G]: -0.249, -0.396, -0.178, -0.652 and -0.189.
